The text below walks through data of PubChem BioAssay AID488969 (Vanderbilt High Throughput Screening Facility, 2010).

Whole data set: some 110,000 compounds, median “z-score” near -0.1, cut for the highest 2% near 2. The list shows a part of the results. Activity calls are given as the source filed them.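 The calls were made as follows: active = z-score in the third read window above 3 or below -3; inactive = the rest.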

The assay deals with Metabotropic glutamate receptor 8 (Rattus norvegicus) (UniProt P70579). Nature of the assay: rat mGluR8 modulators via GIRK flux, primary screen, cell-based, thallium flux, HTS (AID 488969). Conditions: HEK293 rat mGluR8, GIRK (G protein-gated inwardly rectifying potassium channel) thallium flux, FluoZin2; at 10 µM; stronger effect = higher value; submaximal glutamate (EC20) added with thallium.
UniProt P70579, sequence (P70579 whole entry, looked up): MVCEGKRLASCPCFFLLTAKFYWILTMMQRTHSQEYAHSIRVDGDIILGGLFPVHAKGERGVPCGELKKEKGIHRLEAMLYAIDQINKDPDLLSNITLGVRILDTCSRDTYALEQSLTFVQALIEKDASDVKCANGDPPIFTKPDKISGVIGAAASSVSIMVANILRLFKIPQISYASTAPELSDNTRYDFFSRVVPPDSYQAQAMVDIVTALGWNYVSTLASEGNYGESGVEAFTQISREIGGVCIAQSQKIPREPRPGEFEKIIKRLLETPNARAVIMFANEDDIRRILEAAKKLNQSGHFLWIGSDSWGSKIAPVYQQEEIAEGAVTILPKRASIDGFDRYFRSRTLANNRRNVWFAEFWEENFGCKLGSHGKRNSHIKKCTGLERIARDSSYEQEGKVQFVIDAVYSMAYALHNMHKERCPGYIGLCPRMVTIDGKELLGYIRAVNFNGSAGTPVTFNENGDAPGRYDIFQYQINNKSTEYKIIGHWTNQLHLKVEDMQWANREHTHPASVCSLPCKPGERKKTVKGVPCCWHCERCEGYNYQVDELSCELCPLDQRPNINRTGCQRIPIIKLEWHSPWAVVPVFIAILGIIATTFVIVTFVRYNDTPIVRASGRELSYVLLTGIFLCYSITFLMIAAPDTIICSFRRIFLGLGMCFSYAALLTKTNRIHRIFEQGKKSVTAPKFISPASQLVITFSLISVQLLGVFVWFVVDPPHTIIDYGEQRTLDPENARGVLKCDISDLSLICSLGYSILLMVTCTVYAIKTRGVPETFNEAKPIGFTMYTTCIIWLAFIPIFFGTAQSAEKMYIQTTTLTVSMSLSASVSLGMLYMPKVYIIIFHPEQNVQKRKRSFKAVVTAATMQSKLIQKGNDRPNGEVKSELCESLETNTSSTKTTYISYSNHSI
For `Cc1ccc(Cn2cnc3ccccc32)cc1`, the z-score was 0.283.

The compound `Cc1ccsc1/C=N/N1CCN(c2ccccc2)CC1` returned a z-score of -0.161.

Take `Cc1ccc(N(CC(=O)N2CCN(c3ccc(F)cc3)CC2)S(=O)(=O)c2c(C)nn(C)c2C)cc1`: the z-score was -0.466.

As for `CC(C)(C)c1ccc(OCC(=O)N/N=C/c2ccsc2)cc1`, the z-score was determined as 0.2.

In the case of `CCCc1ccc(OCc2ccc(C(=O)N3CCN(c4ccccn4)CC3)o2)c(OC)c1`, the z-score was -0.628.

With `CCOC(=O)C1=C(C)NC(=S)NC1/C=C/c1ccccc1` (centres undefined), the z-score was -0.0695.

In the case of `CC(=O)Nc1ccc(OCC(O)Cn2nc(C)nc2C)cc1` (centres undefined), the z-score is -0.801.

`CCOC(=O)c1c(C)nc2sc3c(=O)n(-c4ccc(OC)cc4)cnc3c2c1-c1ccc(OC)cc1` had a z-score of -0.0166.

`Cc1nc2c(-c3ccc(F)cc3)c(C)nn2c(C)c1CCC(=O)N1CCOCC1` registered a z-score of -0.13.

Turning to `c1coc(CNCc2cccs2)c1`, the z-score worked out at 0.584.

`N#Cc1ccc(NC(=O)c2nc(-c3ccccc3)n(-c3ccccc3)n2)cc1` showed a z-score of -0.634.

`Nc1nc(Cl)cc(N2CCC(c3cc(-c4ccc(Cl)cc4Cl)n[nH]3)CC2)n1` returned a z-score of 0.128.

Turning to `O=C(C1CC1)N1CCN=C1SCc1ccc(F)cc1`, the z-score turned out to be 0.173.

The compound `COC(=O)CCC(=O)c1oc2ccccc2c1NC(=O)CCCN1C(=O)c2ccccc2C1=O` came in with a z-score of -0.0564.

Compound `CCCCc1cc(=O)oc2c(CN(CC)CC)c(O)c(Cl)cc12` showed a z-score of 0.00794.

Turning to `CCCN(CCC)C(C(=O)Nc1cccc(OC)c1)c1ccccc1` (centres undefined), the z-score is 0.151.

`CCCN1CNC(=S)N(CC2CCCO2)C1` (centres undefined) had a z-score of 0.136.

For `Cc1cc(C(F)F)n2ncc(C(=O)NCc3ccccc3)c2n1`, the z-score is -0.4.

The compound `COc1ccc(C(=O)NCCN2CCCC2)cc1OC` returned a z-score of 0.216.

As for `N#Cc1ccccc1/C=N/Nc1nc(-c2ccccc2)c2cc(Cl)ccc2n1`, the z-score is -0.0971.

Turning to `Nc1nc2ccc([N+](=O)[O-])c(N)c2s1`, the z-score was -0.0644.

`O=C(/C=C/c1ccccc1)NNC(=O)c1cccnc1`: the z-score is -0.195.

Consider `CCc1cccc(CC)c1-n1c(SCn2nnc3ccccc3c2=O)nnc1-c1cccnc1`, for which the z-score is -0.291.

For `CCOC(=O)c1c(NC(=O)c2ccccc2Br)sc2c1CCc1ccccc1-2`, the z-score was -0.456.

The compound `O=C(COC(=O)Cc1cccc(C(F)(F)F)c1)Nc1ccccc1` showed a z-score of 0.426.

As to `C/C(=N/Oc1nc(C)cc(C)n1)c1ccc(Cl)cc1Cl`, the z-score was -0.231.

As to `CC(C)C(C)NC(=O)COc1ccc(-c2ccccc2)cc1` (centres undefined), the z-score is -0.309.

Regarding `CCCCCCc1cc2cc(C(N)=O)c(=N)oc2cc1O`, the z-score was -1.44.

With `Cc1ccccc1C1C(C#N)=C2N=C(N)c3c(sc4c3CCCCC4)N2C2=C1C(=O)CC(C)(C)C2` (centres undefined), the z-score is -0.815.

For the compound `CCOc1cc(C)c(Cl)cc1S(=O)(=O)NCc1ccco1`, the z-score is 0.404.

In turn, `O=C(Nc1cc(-c2nc3ccccc3s2)ccc1Cl)c1ccc2c(c1)OCO2` returned a z-score of 0.277.

Take `CCOC(=O)CSc1nnc(CNC(=O)c2cc(OCC)c(OCC)c(OCC)c2)n1C`: the z-score is -0.467.

With `CCOC(=O)Cc1csc(NC(=O)c2ccc(Br)s2)n1`, the z-score is 1.08.

As for `Cc1ccc(OCCCN2C(=O)C(=O)c3cccc(C)c32)cc1`, the z-score was -0.259.

Consider `CCOC(=O)c1cnc(SC2CC(=O)N(c3ccccc3)C2=O)nc1N` (centres undefined), for which the z-score is -0.244.

`CCCCNS(=O)(=O)c1ccc2nc(SCC(=O)Nc3sccc3C#N)[nH]c2c1` had a z-score of -1.36.

The compound `CC(=O)N1CCCc2cc(S(=O)(=O)NC(C(=O)NCc3ccc(C)cc3)C(C)C)ccc21` (centres undefined) registered a z-score of -0.339.

With `Cc1ccc(OCC(O)CN2CCN(CC(O)COc3ccc(C)cc3Cl)CC2)c(Cl)c1` (centres undefined), the z-score was -0.164.

Take `Cc1c(NC(=O)c2cccnc2C(=O)O)cccc1C(=O)O`: the z-score is -0.0324.

The compound `Cc1ccc(OCCN2CCNCC2)c([N+](=O)[O-])c1` yielded a z-score of 0.123.

For `C=CCN(c1ccc(C(=O)Nc2cc(C)cc(C)c2)cc1)S(C)(=O)=O`, the z-score is -0.27.

Consider `CN(C(=O)Cc1c[nH]c2ccccc12)C(C(=O)Nc1ccc2c(c1)OCO2)c1ccccc1` (centres undefined), for which the z-score was -0.321.

Turning to `CCOC(=O)CC(NC(C)=O)c1ccc([N+](=O)[O-])cc1` (centres undefined), the z-score is 0.272.

`Cc1cccc(OCC(=O)NNc2c3ccccc3nc3ccccc23)c1` yielded a z-score of -0.312.

Consider `Cc1nnc(SCc2cccs2)[nH]c1=O`, for which the z-score was -0.00591.

Compound `CC(C)c1nnc(NC(=O)CN2C(=O)c3ccccc3C2=O)s1` gave a z-score of 0.896.

For the compound `CCCCOCC(O)CN1CCN(C(C)=O)CC1` (centres undefined), the z-score is -0.536.

As to `O=C1c2ccccc2C(O)(c2ncc[nH]2)N1C1CCCCC1` (centres undefined), the z-score is -0.34.

Compound `COc1ccccc1CN1CCSCC1` yielded a z-score of -0.0181.

In the case of `O=C(COc1ccccc1[N+](=O)[O-])N/N=C/c1cccc(OC(=O)c2ccc3c(c2)OCO3)c1`, the z-score is 0.0655.

As to `CCC(c1nnnn1CCc1ccccc1)N1CCN(C(=O)c2ccco2)CC1` (centres undefined), the z-score is 0.0857.

`CCC1C(=O)Nc2nc(-c3ccccc3)c(-c3ccccc3)n2N=C1C` (centres undefined) yielded a z-score of 0.449.

The compound `Cc1noc(C)c1COc1ccc(C(=O)OCC(=O)NC2CCCCC2C)cc1` (centres undefined) had a z-score of 0.0741.

In turn, `CNC(=O)CSc1nnc(-c2ccncc2)n1Cc1ccccc1` yielded a z-score of -0.216.

`O=C(COc1ccc2oc(-c3ccccc3)cc(=O)c2c1)Nc1ccccc1`: the z-score was -0.172.

In turn, `O=C1N(Cc2ccccc2F)c2ccccc2C12OCCCO2` had a z-score of -0.297.

In turn, `CC1CC(Nc2ccccc2N)=CC(=O)O1` (centres undefined) had a z-score of 0.01.

`O=C(c1ccc(F)cc1)N1CCN(Cc2ccccc2Br)CC1` had a z-score of -0.454.

In turn, `CCCCN(CC)S(=O)(=O)c1ccccc1` gave a z-score of 0.171.

As for `CCOC(=O)n1c(=O)n(Cc2ccccc2)c2ccccc21`, the z-score was -0.838.

On to `CCCNC(=O)c1ccc(Cn2c(=S)[nH]c3c([nH]c4ccc(OC)cc43)c2=O)cc1`, for which the z-score is -0.229.

For the compound `Cn1c(NC(=O)COc2ccccc2)cc(=O)n(C)c1=O`, the z-score was determined as 0.597.

Compound `CCCSc1cc(NCCOC(C)=O)c([N+](=O)[O-])c2nonc12` registered a z-score of 2.48.

`COc1ccc(Cl)cc1Nc1nc(-c2sc(NC(=O)C(C)(C)C)nc2C)cs1` yielded a z-score of -0.194.

Consider `CCOC(=O)CC1C(=O)NCCN1S(=O)(=O)c1ccc(Cl)c(Cl)c1` (centres undefined), for which the z-score was found to be 0.108.

`O=C(Cn1nnc(-c2ccc(OCc3ccccc3F)cc2)n1)N1CCOCC1` showed a z-score of -0.163.

In turn, `CN1C(=O)CSC1=NC12CC3CC(CC(C3)C1)C2` returned a z-score of -0.449.

Compound `O=C(NCn1cnccc1=O)c1ccccc1` returned a z-score of 0.063.

Consider `Cc1nonc1OCCn1nnnc1N`, for which the z-score is -0.0665.

With `O=C(CCSCCC(=O)NCc1ccco1)NCc1ccco1`, the z-score is -0.212.

The compound `Cc1cc(C)nc(Sc2ccc(/C=C(\C#N)C(=O)Nc3ccccc3)o2)n1` registered a z-score of -0.125.

In turn, `CCCCCCCCn1c(N2CCN(c3cccc(Cl)c3)CC2)nc2c1c(=O)[nH]c(=O)n2C` returned a z-score of -0.178.

The compound `Cc1occc1C(=O)Nc1c(F)c(F)c(F)c(F)c1F` gave a z-score of -0.259.

`Cc1cc(-c2csc(NC(=O)c3cc4ccccc4o3)n2)c(C)n1C` had a z-score of -0.206.

As to `CCCn1nc(NC(=O)c2cccs2)c2cc3cc(OC)ccc3nc21`, the z-score is -0.896.

For `O=C(COc1ccccc1)OC(C(=O)c1ccccc1)c1ccccc1` (centres undefined), the z-score is -0.174.

Turning to `Cc1ccc(NC(=O)CCc2c(C)nc3ncnn3c2C)nc1`, the z-score is -0.0827.

`Cn1nnc2cc(C(=O)NC3CC3)ccc21` displayed a z-score of 1.12.

`COc1ccccc1CNC(=O)c1ccccc1N`: the z-score was -0.312.

`COc1ccc(NC(=O)CSc2nnc(-c3ccc(C)cc3)n2N)cc1` yielded a z-score of 0.826.

As to `O=C(Cc1ccccc1[N+](=O)[O-])NCCSCc1c(F)cccc1Cl`, the z-score is -0.104.

Compound `Clc1ccc(C2=CSC3=NCCN23)cc1Cl` returned a z-score of 0.92.

With `Cc1ccc(C)c(OCC(=O)Nc2nc3ccc([N+](=O)[O-])cc3s2)c1C`, the z-score is 2.46.

As to `C(/C=C/C=C/Nc1ccccc1)=Nc1ccccc1`, the z-score is active: 16.2.

For the compound `COc1cc(/C=N\NC(=O)c2ccc(Cn3cc(Br)c([N+](=O)[O-])n3)o2)cc(OC)c1O`, the z-score was -0.591.

On to `CC12CCC(C(=O)Nc3ccc4c(c3)OCCO4)(OC1=O)C2(C)C` (centres undefined), for which the z-score is 0.112.

In the case of `O=c1cc(C23CC4CC(CC(C4)C2)C3)[nH][nH]1`, the z-score is -0.656.

`COC(=O)c1ccccc1NC(=O)c1ccccc1SC` registered a z-score of -0.557.

Consider `CCO/C(C)=C1\N=C(c2ccc(Cl)cc2)OC1=O`, for which the z-score was -0.358.

Compound `O=S(=O)(c1ccc2c(c1)OCCO2)N1CCN(Cc2ccccc2)CC1` displayed a z-score of 0.12.

For the compound `C=C(C)CNC(=S)Nc1sc2c(c1C(=O)OCC)CC(C)(C)OC2`, the z-score turned out to be 0.296.

With `Cn1c(N)c(C(=O)CCl)c(=O)n(C)c1=O`, the z-score amounted to 0.0911.

`Cc1cccc(-n2ccnc2SCC(=O)Nc2cc(C)on2)c1` had a z-score of -0.228.

As to `CCN(CC)S(=O)(=O)c1cccc(-c2nnc(SCc3ncc(-c4ccccc4)o3)n2C)c1`, the z-score was -0.456.

Turning to `N#CC1=C(N)Oc2ccc3ccc(O)cc3c2C1c1ccsc1` (centres undefined), the z-score is -0.275.

In turn, `O=C(CN(c1ccc(Cl)cc1)S(=O)(=O)c1ccccc1)N/N=C/c1ccco1` gave a z-score of -0.371.

In turn, `O=C(CSc1nnnn1-c1ccccc1)Nc1ccc(N2CCOCC2)c(Cl)c1` displayed a z-score of -0.613.

Compound `Cn1cnnc1SC(C(=O)c1ccccc1)c1ccccc1` (centres undefined) had a z-score of -0.88.

In turn, `COc1ccc(N(CC(O)CN2C(=O)NC(C)(C)C2=O)S(=O)(=O)c2ccccc2)cc1` (centres undefined) came in with a z-score of -0.294.

With `CC(C)C(=O)Nc1ccc(Nc2ccccc2)cc1`, the z-score worked out at 0.603.

In turn, `c1ccc(CNc2nnnn2-c2ccccc2)cc1` gave a z-score of -0.197.

In the case of `CCOc1ccc(-n2c(C)nc3cc(C(=O)NCCN4CCOCC4)ccc32)cc1`, the z-score is -0.173.

`Cn1c(=O)c2[nH]c(-c3cccnc3)nc2n(C)c1=O` displayed a z-score of 0.366.

Take `Cc1ccc(OCC(=O)N2CCC(N3CCCCCC3)CC2)cc1`: the z-score was found to be 0.172.

As to `CCC(C)NC(=O)COC(=O)c1cccnc1Nc1ccccc1F` (centres undefined), the z-score is 0.219.

Take `COc1cc2cc(C)nc(Cc3cccc4ccccc34)c2cc1OC`: the z-score was -0.0707.

The compound `COc1ccc(S(=O)(=O)N/N=C\c2ccc(OC)c(COc3ccc(C)cc3[N+](=O)[O-])c2)cc1` gave a z-score of -0.436.

`Cc1nn2c3ccccc3n(Cc3ccccc3)c2nc1=O` displayed a z-score of -1.33.

On to `NC1=NC(=O)C(Cc2cc(Cl)ccc2Cl)S1` (centres undefined), for which the z-score is -0.00308.

On to `COC(=O)C1=C(C)N=c2s/c(=C/c3cccs3)c(=O)n2C1c1ccc(F)cc1` (centres undefined), for which the z-score was -0.323.

As to `Cc1ccccc1NC(=S)N(C)CCc1ccccn1`, the z-score was found to be 0.507.

Turning to `c1ccc2c(c1)ncn2Cc1nnc2sc(-c3ccc4c(c3)OCO4)nn12`, the z-score was 0.0378.

With `O=C(NCc1ccccc1)c1cc2ccccc2o1`, the z-score is 0.323.

The compound `COc1ccc(S(=O)(=O)Nc2ccc(S(=O)(=O)N3CCCCC3)cc2)cc1C` displayed a z-score of 0.0459.
